# “And” between values parts separate entries of the source, which are not always exact repeats. Identical values can stand only once. Among all 110,000 compounds or so, about 230 (0.21%) showed an effect of 50% or more. This is one part of the list.
# Biological target: DPAP1 (Plasmodium falciparum, UniProt Q8IIJ9)
# Test: primary screen, percent inhibition; read by cleavage of a fluorogenic dipeptide substrate; higher = more effect of the substance
# Parameters: species or system P. falciparum D10 trophozoite lysates; single well
# 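Also: 30 min substrate incubation versus DMSO and 10 µM JCP410 controls.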
# DPAP1, sequence (Q8IIJ9 whole entry, looked up): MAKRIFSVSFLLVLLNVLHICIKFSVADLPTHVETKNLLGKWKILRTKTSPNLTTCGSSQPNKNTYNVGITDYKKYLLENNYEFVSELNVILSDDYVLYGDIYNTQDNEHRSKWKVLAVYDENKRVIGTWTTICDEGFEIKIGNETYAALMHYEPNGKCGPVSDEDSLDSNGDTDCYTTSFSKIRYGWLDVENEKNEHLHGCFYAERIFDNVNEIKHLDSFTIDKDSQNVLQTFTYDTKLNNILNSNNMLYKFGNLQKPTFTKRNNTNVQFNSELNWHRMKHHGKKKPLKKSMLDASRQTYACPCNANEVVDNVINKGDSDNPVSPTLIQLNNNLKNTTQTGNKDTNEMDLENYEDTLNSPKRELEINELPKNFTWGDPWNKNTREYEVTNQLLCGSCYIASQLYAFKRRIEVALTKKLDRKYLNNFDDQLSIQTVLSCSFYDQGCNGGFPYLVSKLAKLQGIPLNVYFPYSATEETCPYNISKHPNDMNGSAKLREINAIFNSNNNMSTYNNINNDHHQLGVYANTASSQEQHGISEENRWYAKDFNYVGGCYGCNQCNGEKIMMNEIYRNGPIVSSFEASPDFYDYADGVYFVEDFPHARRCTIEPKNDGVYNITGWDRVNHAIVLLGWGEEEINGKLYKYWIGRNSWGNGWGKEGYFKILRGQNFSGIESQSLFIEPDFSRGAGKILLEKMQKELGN
row,Structure (SMILES),% Inhibition @ 10 uM
1,Cc1nc2ncnn2c(C)c1CCC(=O)NCc1ccccc1,-2.25%
2,CC(C)CC(NC(=O)c1ccc(NC(=O)Nc2cccnc2)cc1)C(=O)NCC#N (stereo not shown),-9.15%
3,C=CCn1c(SCc2ccc(F)cc2)nc2cccnc21,-0.878%
4,O=C(O)CN1C(=O)c2cc(Cl)c(Cl)cc2C1=O,3.67%
5,Cc1c(C)n(CC(O)CNCc2ccccc2)c2ccccc12 (stereo not shown),-5.06%
6,CCCN(CCO)Cc1ccc(Br)o1,-0.446%
7,Cc1cccn2c(=O)c3cc(C#N)c(=O)n(C)c3nc12,2.73%
8,Cc1nnc(SCc2nc(-c3ccc(Br)cc3)no2)n1-c1ccccc1,2.31%
9,Cn1cccc1-c1nc2cc(NC(=O)c3ccccc3)ccc2[nH]1,-5.34%
10,C=CCN1C=CC(=Cc2ccc3ccc(C)cc3[n+]2CC)C=C1,-6.71%
11,NC(=O)c1c(NC(=O)Cc2ccccc2)sc2c1CCCC2,-8.15%
12,Cc1csc(NC2c3ccccc3C(=O)N2Cc2ccccc2)n1 (stereo not shown),-1.08%
13,CN1CCCN(Cc2ccc3ccccc3c2)CC1,1.55%
14,CCOC(=O)c1cc2c(=O)n3ccccc3nc2n(CC(C)C)/c1=N/C(=O)COc1ccccc1,-3.78%
15,CC(C)(C)c1ccc(C(=O)Nc2cccc(NC(=O)c3cccc4ccccc34)c2)cc1,1.13%
16,CCC(C(=O)OC)N1CC1C(=O)OC (stereo not shown),3.42%
17,COc1cc(OC)cc(-c2nc3n(n2)C(c2ccc(F)cc2)C2=C(O)CC(C)(C)CC2=N3)c1 (stereo not shown),-1.47%
18,CCOC(=O)c1cnc(NC(=O)CSc2nnc3sc4ccccc4n23)s1,-2.75%
19,COc1cc2oc3c(c2cc1O)CCCC3,-13.7%
20,Clc1ccccc1CNCc1cccnc1,0.98%
21,O=C(NCc1cccnc1)C1CCN(c2nnc(-n3cccc3)s2)CC1,-0.522%
22,COc1cc(NC(=O)c2ccc(C)o2)c(OC)cc1Cl,-5.13%
23,CC1CCCN(S(=O)(=O)c2ccc3[nH]c4c(c3c2)CCCC4)C1 (stereo not shown),-1.95%
24,C(=C\c1ccnc2ccccc12)/c1ccc2c(c1)OCO2,4.67%
25,O=C(NCCN1C(=O)C2C3C=CC(C3)C2C1=O)OC1CCCCC1 (stereo not shown),-1.17%
26,O=C(Nc1ccccc1F)c1cc2nc(C(F)F)cc(C(F)F)n2n1,-3.72%

row,Structure (SMILES),% Inhibition @ 10 uM
1,CCCOc1ccccc1/C=c1/sc2ncnn2c1=O,3.34%
2,CN(C)c1ccc(C=C2C(=O)NC(=O)NC2=O)cc1Br,-1.05%
3,Cn1cc(CCC(=O)NC2CCN(Cc3ccccc3)CC2)c2ccccc21,-3.44%
4,COc1ccc(NC(=O)C2CCCCC2C(=O)O)cc1 (stereo not shown),-2.65%
5,O=C(N/C(=C\c1ccco1)C(=O)N1CCCCCCC1)c1ccccc1,-0.725%
6,Cc1ccc(CNC(=O)c2nnc(Cc3ccc(C)cc3)o2)cc1,0.974%
7,c1cc2c[nH]nc2cc1NC1CC2CCC1C2 (stereo not shown),5.37%
8,CSc1ncc(C(=O)NCCN(C)C)c(-c2ccccc2)n1,-1.43%
9,CCCCOc1ccc(C(=O)NCc2cn3ccc(C)cc3n2)cc1,3.3%
10,Cc1ccc(C)c(Cn2c(C)c(CNC3CCC(C)CC3)c(C(=O)O)c2C)c1 (stereo not shown),-5.49%
11,CCOc1ccc(NC(=O)c2c(NC(=O)CCC(=O)O)sc3c2CCCC3)cc1,4%
12,Cc1cc2c(cn1)/C(=C/c1ccccc1)c1ccccc1-2,-3.48%
13,CC1CCCCN1C(=O)c1ccc(Br)cc1 (stereo not shown),5.32%
14,CCN(CC)CC(C)CNC(=O)c1cc(O)nc2ccc(S(=O)(=O)N3CCCCCC3)cc12 (stereo not shown),2.05%
15,C=CCC1(CC=C)C(=O)N(C)C(=O)N(C)C1=O,-2.41%
16,O=c1oc2ccc(Br)cc2cc1-c1nc(-c2cccs2)no1,4.29%
17,COc1ccc(NC(=O)c2cccnc2)c(OC)c1,-1.22%
18,CCOC(=O)/C(C#N)=C/c1ccc(-c2ccccc2OC)o1,-11.3%
19,CC12C=CC(C)(O1)C1C(=O)N(c3ccc(Cl)cc3)C(=O)C12 (stereo not shown),-0.63%
20,O=C(NCc1ccccc1Cl)c1cc2c(s1)CS(=O)C2 (stereo not shown),-0.406%
21,Cc1cc(O)c(C2=NCCSC(c3cc(Br)ccc3O)C2)c(=O)o1 (stereo not shown),4.89%
22,CC(=O)CCc1c(C)nc2ccc(C)cc2c1S,2.92%
23,COc1ccc(C)c(N2C(=O)CC(N3CCC(C(N)=O)CC3)C2=O)c1 (stereo not shown),2.86%
24,Cc1[nH]nc(N)c1C#N,0.0882%
25,Cn1c(=O)c2c(ncn2CC(=O)Nc2ccncc2)n(C)c1=O,1.92%
26,Cc1c(Cl)cccc1NC(=O)CN1CCN(CCO)CC1,3.05% and -0.519%

# Reference: article PMC6919601, “Identification of Plasmodium dipeptidyl aminopeptidase allosteric inhibitors by high throughput screening” (PLoS ONE, 2019)
